Assay results taken from PubChem BioAssay AID2060329 (Molecular Pharmacology Branch, DTP, NCI, 2025).
Certain results were filed several times, with different values. The list is limited to them. There may be further records. Values that stand side by side are repeats in other runs, samples, wells, individuals or studies. Signs of the kind (2×) say how often a value occurs here.

System: MCF7 multi-cell spheroids with HUVEC/MSC, viability
Test: Anticancer human tumor MCF7 cell line growth inhibition [IpAb];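 further: spheroids exposed to agents for seven days before readout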
Conditions: for viability, T/C: stronger effect = lower value
Source text: Combinatorial screen of targeted agents with ipatasertib and abemaciclib in multi-cell type tumor spheroids
A high-throughput screen of multi-cell type tumor spheroids was designed to identify active combinations of targeted small molecules and ipatasertib or abemaciclib. Complex spheroids include a stromal component modeled by human endothelial cells (HUVEC) and fibroblasts modeled by human mesenchymal stem cells (MSCs). The concentration ranges selected for each drug and investigational agent were based upon clinically achievable concentrations if the clinical Cmax of the agent was known.
Compounds. The drugs and investigational agents: ipatasertib (NSC767898), abemaciclib(NSC768073), selumetinib (NSC741078), trametinib (758246), adavosertib (NSC754352), everolimus (NSC733504), sapanisertib (NSC764658), vemurafenib (NSC761431), venetoclax (NSC766270), copanlisib (NSC809693), apelisib (NSC765974), palbociblib (NSC758247), vemurafenib (NSC761431), dabrafenib (NSC764134), ravoxertinib (NSC781343), BMS-387032 (NSC767048), sotorasib (NSC818433), talazoparib (NSC767125) and afursertib (NSC778305), were obtained from the National Cancer Institute (NCI) Developmental Therapeutics Program Chemical Repository. The FDA-approved anticancer drug set is available from the NCI Developmental Therapeutics Program. […] The stock solutions were prepared in dimethyl sulfoxide (DMSO, Sigma-Aldrich, St. Louis, MO, cat. D2650) at 800-fold the tested concentration and stored at -70 degrees C prior to their use. All drugs and investigational agents were tested over a range starting from a high concentration at or near the clinical Cmax and decreasing in half-log increments. If the clinical Cmax for an agent had not been determined, the highest concentration tested was 10 microM.
NCI60 Cell Culture. NCI60 cell lines were obtained from the NCI Developmental Therapeutics Program Tumor Repository. For each lot of cells, the Repository performed Applied Biosystems AmpFLSTR Identifiler testing with PCR amplification to confirm consistency with the published Identifier STR profile for each cell line. Cells were kept in continuous culture for no more than 20 passages. The optimal seeding densities for each of the cell lines at each time point assessed were determined prior to performing the concentration response studies. Briefly, the NCI60 human tumor lines were grown as monolayers in RPMI 1640 medium supplemented with 10% FBS and 2 mmol/L L-glutamine.
An additional 9 lines were from the NCI60 cell line panel including MDA-MB-231 breast carcinoma, MDA-MB-468 breast carcinoma, MCF7 breast carcinoma, Hs578T breast carcinoma, MALME-3M melanoma, SK-MEL-2 melanoma, SK-OV-3 ovarian carcinoma, DU-145 prostate carcinoma, PC-3 prostate carcinoma, all cell lines along with major genetic alterations are listed on Table 2. Pooled donor human umbilical vein endothelial cells (HUVEC, Lonza, cat. CC-2519) and human mesenchymal stem cells (hMSC, Lonza, cat. PT-2501) were purchased from Lonza (Walkersville, MD).
PDMR cell lines were grown in complete medium (DC medium): Dulbecco's modified Eagle's medium (DMEM)/F12 supplemented with 5% fetal bovine serum (FBS), 2 mM L-glutamine, 100 U/mL penicillin and 100 µg/ml streptomycin, 0.4 µg/ml hydrocortisone, 10 ng/ml epidermal growth factor (EGF) recombinant human protein, 24 µg/mL adenine, and 0.1 mg/mL primocin. During culture from frozen stock vials, PDMR cells were cultured in the same medium containing 10 µM Y-27632 (see Table 3). […]

SMILES	viability, T/C (compound alone 10 µM)	IC50 (compound alone, run of 06/01/2021)	viability, T/C (compound alone 0.1 µM)	viability, T/C (compound alone 0.316 µM)	viability, T/C (compound alone 1 µM)
CC(C)NCC(C(=O)N1CCN(c2ncnc3c2C(C)CC3O)CC1)c1ccc(Cl)cc1 (stereo not given)	34.9, 27.5, 41, 40.8, 51, 24.1, 29.4, 44.1, 44.7, 45.7, 31.8, 37, 34.5%	1.69 µM, 2.07 µM, 4.07 µM, 5.37 µM, > 10 µM, 1.12 µM, 2.27 µM, 4.79 µM, 6.2 µM, 6.7 µM, 2.38 µM, 2.8 µM, 4.73 µM	–	–	–
CCN1CCN(Cc2ccc(Nc3ncc(F)c(-c4cc(F)c5nc(C)n(C(C)C)c5c4)n3)nc2)CC1	–	–	114, 90.8, 100, 101, 103 (2×), 104 (2×), 102, 111, 117, 106% (2×)	110, 93, 79.4, 97.8, 120, 94.9, 123, 85.5, 107 (2×), 112, 103, 98.2%	105 (2×), 93.2, 68.7, 103, 102, 80.6, 92.5, 82.2, 75, 113, 94.3, 93.5%
